Test results as given in the supplement of paper PMC8728848.
Some of the results follow.

Assays:
Assay in all cases: glycan array binding signal (z-score within array); higher = stronger binding
Conditions in all cases: glycan notation: IUPAC condensed, linker removed
[1] = biological target: Fuc(a1-2)[Gal(a1-3)]Gal(b1-4)GlcNAc(b1-3)GalNAc
In short: (§1)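 Glycan array data came from 3228 arrays in the Consortium for Functional Glycomics database, and only arrays with an available protein sequence were kept. Glycan names were put into IUPAC-condensed notation, and columns mapping to the same glycan were averaged. The binding signal is a within-array Z-score, averaged across arrays of one protein sequence run at different concentrations or buffers and across linkers. A negative Z-score can be read as non-binding.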

[2] = biological target: Fuc(a1-2)[Gal(a1-3)]Gal(b1-4)[Fuc(a1-3)]Glc
In short: as §1

[3] = biological target: Fuc(a1-2)[Gal(a1-3)]Gal(b1-4)[Fuc(a1-3)]GlcNAc
In short: as §1

[4] = biological target: Fuc(a1-2)[Gal(a1-3)]Gal(b1-4)[Fuc(a1-3)]GlcNAc(b1-3)GalNAc
In short: as §1

[5] = biological target: Fuc(a1-2)[Gal(a1-4)]Gal(b1-4)GlcNAc
In short: as §1

[6] = biological target: Fuc(a1-2)[GalNAc(a1-3)]Gal
In short: as §1

[7] = biological target: Fuc(a1-2)[GalNAc(a1-3)]Gal(b1-3)GalNAc(a1-3)[Fuc(a1-2)]Gal(b1-4)GlcNAc
In short: as §1

[8] = biological target: Fuc(a1-2)[GalNAc(a1-3)]Gal(b1-3)GlcNAc
In short: as §1

[9] = biological target: Fuc(a1-2)[GalNAc(a1-3)]Gal(b1-3)GlcNAc(b1-2)Man(a1-3)[Fuc(a1-2)[GalNAc(a1-3)]Gal(b1-3)GlcNAc(b1-2)Man(a1-6)]Man(b1-4)GlcNAc(b1-4)GlcNAc
In short: as §1

[10] = biological target: Fuc(a1-2)[GalNAc(a1-3)]Gal(b1-3)GlcNAc(b1-3)GalNAc
In short: as §1

[11] = biological target: Fuc(a1-2)[GalNAc(a1-3)]Gal(b1-4)Glc
In short: as §1

[12] = biological target: Fuc(a1-2)[GalNAc(a1-3)]Gal(b1-4)GlcNAc
In short: as §1

[13] = biological target: Fuc(a1-2)[GalNAc(a1-3)]Gal(b1-4)GlcNAc(b1-2)Man(a1-3)[Fuc(a1-2)[GalNAc(a1-3)]Gal(b1-4)GlcNAc(b1-2)Man(a1-6)]Man(b1-4)GlcNAc(b1-4)GlcNAc
In short: as §1

[14] = biological target: Fuc(a1-2)[GalNAc(a1-3)]Gal(b1-4)GlcNAc(b1-3)Gal(b1-4)GlcNAc
In short: as §1

[15] = biological target: Fuc(a1-2)[GalNAc(a1-3)]Gal(b1-4)GlcNAc(b1-3)Gal(b1-4)GlcNAc(b1-3)Gal(b1-4)GlcNAc
In short: as §1

[16] = biological target: Fuc(a1-2)[GalNAc(a1-3)]Gal(b1-4)GlcNAc(b1-3)GalNAc
In short: as §1

[17] = biological target: Fuc(a1-2)[GalNAc(a1-3)]Gal(b1-4)[Fuc(a1-3)]GlcNAc
In short: as §1

[18] = biological target: Fuc(a1-2)[GalNAc(a1-3)]Gal(b1-4)[Fuc(a1-3)]GlcNAc(b1-3)GalNAc
In short: as §1

[19] = biological target: Fuc(a1-2)[GalNAc(a1-4)]Gal(b1-4)GlcNAc
In short: as §1

[20] = biological target: Fuc(a1-2)[GalNAc(b1-3)]Gal
In short: as §1

[21] = biological target: Fuc(a1-3)GlcNAc
In short: as §1

[22] = biological target: Fuc(a1-3)[Gal(b1-4)]Glc6S
In short: as §1

[23] = biological target: Fuc(a1-3)[Gal(b1-4)]GlcNAc
In short: as §1

[24] = biological target: Fuc(a1-3)[Gal(b1-4)]GlcNAc(b1-2)Man(a1-3)[Fuc(a1-3)[Gal(b1-4)]GlcNAc(b1-2)Man(a1-6)]Man(b1-4)GlcNAc(b1-4)GlcNAc
In short: as §1

[25] = biological target: Fuc(a1-3)[Gal(b1-4)]GlcNAc(b1-2)Man(a1-3)[Fuc(a1-3)[Gal(b1-4)]GlcNAc(b1-2)Man(a1-6)]Man(b1-4)GlcNAc(b1-4)[Fuc(a1-6)]GlcNAc
In short: as §1

[26] = biological target: Fuc(a1-3)[Gal(b1-4)]GlcNAc(b1-3)Gal(b1-3)[Fuc(a1-4)]GlcNAc
In short: as §1

[27] = biological target: Fuc(a1-3)[Gal(b1-4)]GlcNAc(b1-3)GalNAc
In short: as §1

[28] = biological target: Fuc(a1-3)[Gal(b1-4)]GlcNAc(b1-4)Gal(b1-4)[Fuc(a1-3)]GlcNAc
In short: as §1

[29] = biological target: Fuc(a1-3)[Gal(b1-4)]GlcNAc(b1-4)Gal(b1-4)[Fuc(a1-3)]GlcNAc(b1-4)Gal(b1-4)[Fuc(a1-3)]GlcNAc
In short: as §1

[30] = biological target: Fuc(a1-3)[Gal(b1-4)]GlcNAc(b1-6)[Gal(b1-3)GlcNAc(b1-3)]Gal(b1-4)Glc
In short: as §1

[31] = biological target: Fuc(a1-3)[Gal(b1-4)]GlcNAc6S
In short: as §1

[32] = biological target: Fuc(a1-3)[Gal3S(b1-4)]GlcNAc
In short: as §1

[33] = biological target: Fuc(a1-3)[Gal3S(b1-4)]GlcNAc6S
In short: as §1

[34] = biological target: Fuc(a1-3)[GalNAc(b1-4)]GlcNAc
In short: as §1

[35] = biological target: Fuc(a1-4)GlcNAc
In short: as §1

[36] = biological target: Fuc(b1-3)GlcNAc
In short: as §1

[37] = biological target: Gal(a1-2)Gal
In short: as §1

[38] = biological target: Gal(a1-3)Gal
In short: as §1

[39] = biological target: Gal(a1-3)Gal(b1-3)GlcNAc
In short: as §1

[40] = biological target: Gal(a1-3)Gal(b1-3)GlcNAc(b1-2)Man(a1-3)[Gal(a1-3)Gal(b1-3)GlcNAc(b1-2)Man(a1-6)]Man(b1-4)GlcNAc(b1-4)GlcNAc
In short: as §1

[41] = biological target: Gal(a1-3)Gal(b1-3)GlcNAc(b1-3)GalNAc
In short: as §1

[42] = biological target: Gal(a1-3)Gal(b1-3)[Fuc(a1-4)]GlcNAc(b1-2)Man(a1-3)[Gal(a1-3)Gal(b1-3)[Fuc(a1-4)]GlcNAc(b1-2)Man(a1-6)]Man(b1-4)GlcNAc(b1-4)GlcNAc
In short: as §1

[43] = biological target: Gal(a1-3)Gal(b1-4)Glc
In short: as §1

[44] = biological target: Gal(a1-3)Gal(b1-4)GlcNAc
In short: as §1

[45] = biological target: Gal(a1-3)Gal(b1-4)GlcNAc(b1-3)GalNAc
In short: as §1

B1: Tectonin 2 (Laccaria bicolor) (protein)
chain: MPWKGISGSLSRISAGSVTNVWGVNAANNIYRYTGDDAKPWVQIPGALTDIGAAADGTVWGVNAAGNIYRYVWDSNHWTQIKGALKRISAGSRTNVWGVNAGGAIYRYTGDDANPWVQIPGVLSDIGAGADGTVWGVNAAGEIYRYTGDQGDPNHWVKIPGALSAISAGIKTNVWGVNSANNIYTSTGDDKNPWLGIGGSLVDIGAGTDGVVWGVNAGGGIYRWIRD
[1]
  glycan array binding signal (z-score): 0.145
[2]
  glycan array binding signal (z-score): -0.505
[3]
  glycan array binding signal (z-score): 0.187
[4]
  glycan array binding signal (z-score): -0.298
[5]
  glycan array binding signal (z-score): 0.061
[6]
  glycan array binding signal (z-score): -0.295
[7]
  glycan array binding signal (z-score): -0.454
[8]
  glycan array binding signal (z-score): -0.14
[9]
  glycan array binding signal (z-score): -0.226
[10]
  glycan array binding signal (z-score): 0.162
[11]
  glycan array binding signal (z-score): -0.525
[12]
  glycan array binding signal (z-score): -0.227
[13]
  glycan array binding signal (z-score): -0.16
[14]
  glycan array binding signal (z-score): -0.507
[15]
  glycan array binding signal (z-score): -0.055
[16]
  glycan array binding signal (z-score): -0.357
[17]
  glycan array binding signal (z-score): -0.145
[18]
  glycan array binding signal (z-score): 0.192
[19]
  glycan array binding signal (z-score): 0.114
[20]
  glycan array binding signal (z-score): -0.321
[21]
  glycan array binding signal (z-score): -0.411
[22]
  glycan array binding signal (z-score): 0.06
[23]
  glycan array binding signal (z-score): -0.401
[24]
  glycan array binding signal (z-score): -0.23
[25]
  glycan array binding signal (z-score): -0.086
[26]
  glycan array binding signal (z-score): -0.402
[27]
  glycan array binding signal (z-score): -0.138
[28]
  glycan array binding signal (z-score): -0.172
[29]
  glycan array binding signal (z-score): -0.16
[30]
  glycan array binding signal (z-score): -0.431
[31]
  glycan array binding signal (z-score): -0.169
[32]
  glycan array binding signal (z-score): -0.074
[33]
  glycan array binding signal (z-score): 0.299
[34]
  glycan array binding signal (z-score): -0.324
[35]
  glycan array binding signal (z-score): -0.511
[36]
  glycan array binding signal (z-score): -0.311
[37]
  glycan array binding signal (z-score): -0.124
[38]
  glycan array binding signal (z-score): -0.089
[39]
  glycan array binding signal (z-score): -0.36
[40]
  glycan array binding signal (z-score): -0.028
[41]
  glycan array binding signal (z-score): 0.13
[42]
  glycan array binding signal (z-score): -0.008
[43]
  glycan array binding signal (z-score): -0.283
[44]
  glycan array binding signal (z-score): -0.238
[45]
  glycan array binding signal (z-score): -0.175
